Laboratory results from patent US20230099801A1, “RESTORATION OF T CELL ACTIVITY VIA THE CD39/CD73 AXIS” (INNATE PHARMA, priority 2017, published 2023).

T1: cell-membrane bound CD39 (CD39-expressing cells) (Homo sapiens, UniProt P49961)
T1 construct: host or cells: CD39-expressing cells
T1 sequence (P49961 1-510): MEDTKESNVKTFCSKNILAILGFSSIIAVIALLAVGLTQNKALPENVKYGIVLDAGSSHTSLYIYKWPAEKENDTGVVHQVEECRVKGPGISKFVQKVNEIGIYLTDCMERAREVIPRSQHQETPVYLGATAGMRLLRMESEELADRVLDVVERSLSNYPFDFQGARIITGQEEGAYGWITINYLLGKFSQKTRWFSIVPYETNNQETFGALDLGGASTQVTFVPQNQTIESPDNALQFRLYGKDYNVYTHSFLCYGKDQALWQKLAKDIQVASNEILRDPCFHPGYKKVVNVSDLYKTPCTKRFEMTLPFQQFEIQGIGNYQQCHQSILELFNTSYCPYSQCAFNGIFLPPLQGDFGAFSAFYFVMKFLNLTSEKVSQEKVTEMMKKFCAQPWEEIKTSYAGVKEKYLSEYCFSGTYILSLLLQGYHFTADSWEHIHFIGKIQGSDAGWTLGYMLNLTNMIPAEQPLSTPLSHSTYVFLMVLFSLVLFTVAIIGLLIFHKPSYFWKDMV

T2: soluble recombinant human CD39 protein (Homo sapiens, UniProt P49961)
T2 construct: made in house; host or cells: CHO cells
T2 sequence (P49961 with tags, fused parts or gaps): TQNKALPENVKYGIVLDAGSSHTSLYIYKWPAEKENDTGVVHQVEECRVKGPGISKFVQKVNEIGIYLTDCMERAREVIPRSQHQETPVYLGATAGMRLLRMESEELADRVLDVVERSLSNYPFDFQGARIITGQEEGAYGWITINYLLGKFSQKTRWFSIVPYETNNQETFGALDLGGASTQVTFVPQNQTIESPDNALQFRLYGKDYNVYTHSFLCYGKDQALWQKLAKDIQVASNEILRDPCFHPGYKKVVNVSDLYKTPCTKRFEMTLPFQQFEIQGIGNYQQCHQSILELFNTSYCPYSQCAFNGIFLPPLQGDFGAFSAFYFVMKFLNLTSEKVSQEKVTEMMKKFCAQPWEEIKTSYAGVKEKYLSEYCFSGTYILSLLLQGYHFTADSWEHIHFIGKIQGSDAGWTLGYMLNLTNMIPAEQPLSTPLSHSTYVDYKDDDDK

B1: I-395: anti-CD39 antibody, VH SEQ ID NO: 14, VL SEQ ID NO: 15 (antibody, listed as Mus musculus, V domains shown)
VH: EVQLQQSGPELVKPGASVRMSCKASGYTFTDYNMHWVKKNHGKGLEWIGYINPNNGGTTYNQKFKGKATLTVNTSSKTAYMELRSLTSEDSAVYYCTRGGTRFASWGQGTLVTVSA
VL: NIVLTQSPASLAVSLGQRATISCRASESVDNYGISFMYWFQQKPGQPPKLLIYAASTQGSGVPARFSGSGSGTDFSLNIHPMEEDDTAMYFCQQSKEVPFTFGSGTKLEIK
B2: I-396: anti-CD39 antibody, VH SEQ ID NO: 22, VL SEQ ID NO: 23 (antibody, listed as Mus musculus, V domains shown)
VH: EVQLQQSGAELVKPGASVKLSCIVSGFNIKDTYINWVKQRPEQGLEWIGRIDPANGNTKYDPKFQGKATMTSDTSSNTAYLHLSSLTSDDSAVYYCARWGYDDEEADYFDSWGQGTTLTVSS
VL: B1 VL with N1D, Y38N, T57N, H80L, D85V, T87A, Q93H, F100W, S104G

Legend:
[1] = molecular target: T1, cell-membrane bound CD39 (CD39-expressing cells); assay: Inhibition of the enzymatic activity of cellular CD39, Cell Titer Glo; assay type: cell-based
Protocol: The ability of an antibody to inhibit cells expressing CD39 protein can be tested by detecting ATP after incubating test antibody with cells (e.g., Ramos cells, cells transfected with CD39, etc.). See, e.g., Example 1. Cells can be incubated for 1 hour at 37° C. with test antibody. Cells are then incubated with 20 μM ATP for 1 additional hour at 37° C. Plates are centrifuged for 2 min at 400 g and cell supernatant are transferred in a luminescence microplate (white wells). CTG is added to the supernatant and emitted light is quantified after a 5 min incubation in the dark using an Enspire™ luminometer. Anti-CD39 antibody efficacy is determined by comparing emitted light in presence of antibody with ATP alone (maximal light emission) and ATP together with cells (minimal light emission).
The inhibition of the CD39 enzymatic activity in CD39-expressing cells by antibodies was evaluated using Cell Titer Glo™ (Promega, reference G7571) that allows assessment of ATP hydrolysis through use of a reagent that generates a luminescent signal proportional to the amount of ATP present. The assay was thus designed to permit assessment of the inhibition of ATP hydrolyzed by CD39 in the cell culture supernatant. Briefly, 5×10^4 Ramos human lymphoma cells, 5×10^3 human CD39-, cynomolgus CD39—and mouse CD39-expressing CHO cells, were incubated 1 hour at 37° C. with anti-CD39 antibodies from 30 μg/ml to 5×10^−4 μg/ml. Cells were then incubated with 20 μM ATP for 1 additional hour at 37° C. Plates were centrifuged for 2 min at 400 g and 50 μl cell supernatant are transferred in a luminescence microplate (white wells). 50 μl CellTiter-Glo® Reagent (CTG) was added to the supernatant and emitted light was quantified after a 5 min incubation in the dark using a Enspire™ luminometer. Anti-CD39 antibody efficacy was determined by comparing emitted light in presence of antibody with ATP alone (maximal light emission) and ATP together with cells (minimal light emission).

[2] = molecular target: T2, soluble recombinant human CD39 protein; assay: Inhibition of the enzymatic (ATPase) activity of soluble CD39, Cell Titer Glo; assay type: biochemical; settings: for inhibition of the enzymatic (ATPase) activity of soluble CD39 protein: 400 ng/ml soluble CD39, 20 μM ATP; for relative potency for inhibition of soluble CD39: FIG. 2B, comparison of I-394, I-395, I-396
Protocol: The ability of an antibody to inhibit soluble recombinant human CD39 protein can be tested by detecting ATP after incubating test antibody with soluble CD39 protein (e.g., the CD39 protein having the amino acid sequence of SEQ ID NO: 5, as produced in Example 1, optionally further comprising a purification tag or other functional or non-functional non-CD39-derived amino acid sequence). See, e.g., Example 1. Briefly, ATP can be quantified using the Cell Titer Glo™ (Promega), in an assay in which dose ranges of test antibody are incubated with soluble recombinant human CD39 protein described in Example 1, for 1 hour at 37° C. 20 μM ATP are added to the plates for 30 additional minutes at 37° C. before addition of CTG reagent. Emitted light is quantified using an Enspire™ luminometer after a short incubation period of 5 min in the dark.
The inhibition by antibodies of the enzymatic activity of soluble CD39 protein produced was evaluated using Cell Titer Glo™ (Promega, reference G7571) that allows assessment of ATP hydrolysis through use of a reagent that generates a luminescent signal proportional to the amount of ATP present. In this way, inhibition of the soluble-CD39-mediated ATP hydrolysis can be assessed. Briefly, dose ranges of anti-CD39 antibodies from 100 μg/ml to 6×10^−3 μg/ml were incubated with 400 ng/ml of soluble recombinant human CD39 protein having the amino acid sequence described in the Methods section (SEQ ID NO: 54), for 1h at 37° C. 20 μM ATP was added to the plates for 30 additional minutes at 37° C. before addition of CTG (Cell Titer Glo) reagent. Emitted light was quantified using an Enspire™ luminometer after a short incubation period of 5 min in the dark. Anti-CD39 antibody efficacy was determined by comparing emitted light in presence of antibody with ATP alone (maximal light emission) and ATP together with soluble CD39 protein (minimal light emission).

| Molecule | inhibition of the enzymatic activity of cellular (cell-membrane bound) CD39 [1] | potency and maximal inhibition of cellular CD39 compared to BY40 ([1]; FIG. 2A) | inhibition of the enzymatic (ATPase) activity of soluble CD39 protein [2] | relative potency for inhibition of soluble CD39 [2] |
| --- | --- | --- | --- | --- |
| B1 | inhibit | greater potency and maximal inhibition; also recorded: greater potency at all concentrations as well as greater maximal inhibition | inhibit | followed by I-395 |
| B2 | inhibit | – | inhibit | lower potency |

Substitutions are numbered along the chain they refer to. Entries after “also recorded” stand apart in the source; their conditions may differ.
